#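 The compound was tested at five concentrations on cells cultured in 96-well plates, with a 48-hour exposure period. Here, GI50 denotes the concentration required for 50% inhibition of growth. TGI marks complete inhibition of growth.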
# Tested on: NCI-H322M lung
# Assay: inhibition of tumour cell growth, NCI panel, 48 h
Structure (SMILES),TGI [µM],GI50 [µM]
CC1OC(n2cc(F)c(=O)[nH]c2=O)C=CC1O (configuration not stated),> 100,
C=CC(Br)(CBr)CCC(Cl)C(C)C (configuration not stated),19.2,
O=C(O/N=C1/CCCC/C1=C\c1ccccc1)c1ccccc1,> 100,
Cc1ccc(C(SCC(N)C(=O)O)(c2ccccc2)c2ccc(C)cc2)cc1 (configuration not stated),37.7,0.0928
CN(C)Cc1cc(C(=O)/C=C/c2ccc(Cl)cc2)cc(CN(C)C)c1O,43.9,
C=C(C=O)C1CCC2(C(=O)O)CCC3(C)C(CCC4C5(C)CCC(O)C(C)(C)C5CCC43C)C12 (configuration not stated),19.4,4.87
Nc1nc(N)c2[nH]c(CNc3ccc(C(=O)O)cc3)nc2n1,> 100,
Clc1coc2nc3ccccc3c(Nc3ccc4c(c3)OCO4)c12,9.78,1.84
CCOC(=O)C1=C(C)N(C)C23OC4(C(=O)OC)CC2c2ccccc2C1N3C4=O (configuration not stated),> 100,
CCC1(CC)SCc2nc3ccccc3n21,> 100,
CN1C(=O)N/C(=C\c2ccc(S(=O)(=O)NN)cc2)C1=O,> 100,
CC1=Nc2ccccc2C1C(Cc1ccccc1N)c1c(C)[nH]c2ccccc12 (configuration not stated),35.9,
CCC(C)(C)/C(CC(O)(C(F)(F)F)C(F)(F)F)=N\O,> 100,
O=[N+]([O-])c1ccccc1S(=O)(=O)c1cc(Cl)cc2c1NCCC2,> 100,
NC(CCCCP(=O)(O)O)C(=O)O (configuration not stated),> 100,
COc1ccc(NC(=O)CCc2cc(-c3ccc(O)c(OC)c3)nc(NC#N)n2)cc1,> 100,
O=[N+]([O-])c1ccc(/C=N/n2c(CO)nc3ccccc32)o1,23.7,
COC(=O)C12C3C4C1C1C2C3C41C(=O)OC(C)(C)C (configuration not stated),> 100,
COc1cc(Nc2cnc3cc(F)c(F)cc3n2)cc(OC)c1OC,> 100,
C=C(C=O)[C@@H]1C2OC(=O)C(=C)[C@@H]2CC(O)[C@@]1(C)CC (some centres not stated),53.5,
N#C/C(C(=O)Nc1ccccc1)=C(/N)N1CCOCC1,> 100,
COC(=O)/C=C/c1cc(O)c2oc(-c3ccc(O)c(O)c3)c(C(=O)OC)c2c1,23,10
O=C(Nc1ccc(OS(=O)(=O)c2ccccc2)cc1)C12CC3CC(CC(C3)C1)C2,> 100,> 100
CCCCN(CCCC)CC(C(=O)Nc1ccc([N+](=O)[O-])cc1[N+](=O)[O-])/C(C)=N\NC(=S)NN (configuration not stated),> 100,
Cc1ccc(SC(C)/C=C/NNC2=NC(c3ccccc3)C(c3ccccc3)=NN2)cc1 (configuration not stated),> 100,

Structure (SMILES),TGI [µM],GI50 [µM]
Cc1cc2nc3c(C#N)c(-c4ccccc4)cc(Nc4ccc(Cl)cc4)n3c2cc1C,> 100,
CNC(=S)NC1CCCCC1NC(=S)NC (configuration not stated),> 100,
COC(=O)C(C)(NC(=O)C(CC(=O)OC(C)(C)C)NC(=O)OC(C)(C)C)c1ccccc1 (configuration not stated),> 100,
CCN(CC)c1c(N(CC)CC)c(=O)c1=O,62.6,
C=CCNC1=C2C[C@@H](C)C[C@@H](OC)[C@H](OC(=O)CCCCN)[C@H](C)/C=C(\C)[C@@H](OC(N)=O)[C@H](OC)/C=C\C=C(/C)C(=O)NC(=CC1=O)C2=O,25.6,
COc1ccc(N(C)c2ncnc3occ(C)c23)cc1,> 100,
S=C(N/N=C/c1ccco1)NC12CC3CC(CC(C3)C1)C2,> 100,
CC1=C(C#N)C(C#N)(C#N)C(NN(C)C)C1 (configuration not stated),> 100,
CC(=O)OCc1cc(CCC(=O)NCCNc2c3ccccc3nc3ccccc23)cc(COC(C)=O)c1O[Si](C)(C)C(C)(C)C,28.9,
COc1ccc(N2C(=O)C(c3ccccc3)(c3ccccc3)C23C(=O)N(C)c2ccccc23)cc1 (configuration not stated),> 100,> 100
CC(=O)n1nc(-c2ccccc2)n(/N=C/c2ccc([N+](=O)[O-])cc2)c1=O,> 100,
CC(C)(C)c1cc(C(P(=O)(c2ccccc2)c2ccccc2)P(=O)(c2ccccc2)c2ccccc2)cc(C(C)(C)C)c1O,> 8.86,
Cn1cc(C2=C(c3ccc4ccccc4c3)C(=O)NC2=O)c2ccccc21,> 25,> 25
CN(c1ccc(Cl)cc1)S(=O)(=O)c1ccc([N+](=O)[O-])cc1,> 100,
CCC(=O)NC(Nc1cccc(F)c1C)(C(F)(F)F)C(F)(F)F,> 100,
COc1ccc(C(=O)c2cc(OC)c(C)c(OC)c2)cc1OC(=O)CCl,> 100,0.583
CCN(CC)CCOc1ccc(/C=C(\C#N)c2ccc(OCCN(CC)CC)cc2)cc1,56.4,
C=C1CC(c2ccc(OCCCN3C(=O)c4ccccc4C3=O)c(OC)c2)OC1=O (configuration not stated),31.5,
Cc1nnc(S(=O)(=O)c2ccc(N=Nc3c(N)nc(N)nc3N)cc2)s1,> 100,
CNCCCn1cc(C2=C(c3cn(C)c4ccccc34)C(=O)NC2=O)c2ccccc21,16.5,5.09
CCOC(=O)C1(Cc2ccc3c(c2)CCC3)Cc2cc3c(cc2C1)CCC3,> 100,
COc1cc(C(=O)c2cc(C)c3[nH]c4ccc(Cl)cc4c3c2C)cc(OC)c1OC,23.4,0.0648
Clc1ccc2c(NCCCNc3nccc(Nc4ccc(Br)cc4)n3)ccnc2c1,3.13,1.59
O=S(=O)([O-])c1ccc2c(c1)-c1nc-2nc2[n-]c(nc3nc(nc4[n-]c(n1)c1ccc(S(=O)(=O)[O-])cc41)-c1cc(S(=O)(=O)[O-])ccc1-3)c1ccc(S(=O)(=O)[O-])cc21.[Cu+2].[Na+],> 100,> 100
CC[N+](CC)(CCNCC(N)=O)CC(N)=O,> 10,

# Source: PubChem BioAssay (NCI)
